According to the supplement of paper PMC11125491:
± gives the standard deviation of the averaged measurements. Growth of baker's yeast expressing single-residue variants of Pneumocystis jirovecii dihydrofolate reductase in 8.8 or 44 µM methotrexate (about 75% and 90% inhibition of the wild type). Selection coefficient per generation; 0 = like wild type, above 0 = less sensitive, below 0 = more sensitive or loss of function. No active / inactive call per row; the paper calls resistant above 0.220 (8.8 µM) or 0.243 (44 µM) together with a significance test. At 44 µM about 15% of codons end with one read or none, so the lowest values are floors (replicate rank correlation 0.74; 0.94 at 8.8 µM).

B1: UniProt A0EPZ9; numbered along this chain (parent)
chain: MDWQKSLTLIVALTLSRGIGLKNDLPWKLKSDMMFFSRVTSGLLVTRSTGQMNVVLMGRKTWESLPAHSRPLKNRINVVISRQEVLDLGGGAYHARSLDDALALLSQIYDSTSKIQLNRVFVIGGGELCKAAMEHSRLNRIIATVIHNEVDCDVFFPIDFRSSQSCLPWRKQDHSVLEAWVGSKVPQGKINENGFIYEFEMWIRDI

Variants of: B1
Test: selection coefficient against synonymous wild-type codons (log2 per generation); higher = faster growth than wild type
Conditions: with Saccharomyces cerevisiae carrying the variant on a plasmid
Description: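 Pooled growth of yeast carrying single-residue variants of P. jirovecii dihydrofolate reductase (own DFR1 gene intact), two passages at 30 °C, three cultures, sequenced before and after. Codons with under 15 starting reads are left out; codons of one change are averaged.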

| Variant | selection coefficient against synonymous wild-type codons (log2) (methotrexate 8.8 µM) | selection coefficient against synonymous wild-type codons (log2) (methotrexate 44 µM) |
| --- | --- | --- |
| R70P | 0.0286 ± 0.09 | 0.0761 ± 0.17 |
| D205F | -0.517 ± 0.044 | -0.335 ± 0.086 |
| D205V | -0.231 ± 0.17 | -0.0988 ± 0.25 |
| D205K | -0.119 ± 0.047 | -0.296 ± 0.073 |
| A131C | -0.29 ± 0.053 | -0.273 ± 0.16 |
| A131K | -0.154 ± 0.015 | -0.269 ± 0.16 |
| V154Y | -0.1 ± 0.061 | -0.048 ± 0.095 |
| M52T | -0.0794 ± 0.069 | -0.0259 ± 0.17 |
| L43A | 0.086 ± 0.065 | 0.0877 ± 0.077 |
| L43V | -0.107 ± 0.083 | -0.103 ± 0.13 |
| R170I | -0.0249 ± 0.053 | -0.161 ± 0.28 |
| R170D | -0.0208 ± 0.076 | -0.0546 ± 0.06 |
| S175Q | -0.0112 ± 0.031 | -0.0203 ± 0.054 |
| S175P | -0.0568 ± 0.063 | -0.108 ± 0.11 |
| N148D | 0.137 ± 0.043 | 0.06 ± 0.047 |
| N148L | -0.209 ± 0.086 | -0.281 ± 0.11 |
| A12G | 0.51 ± 0.024 | 0.568 ± 0.025 |
| A12R | -0.503 ± 0.12 | -0.313 ± 0.14 |
| S48G | 0.0438 ± 0.015 | 0.013 ± 0.078 |
| S48D | 0.153 ± 0.06 | 0.15 ± 0.093 |

| Variant | selection coefficient against synonymous wild-type codons (log2) (methotrexate 8.8 µM) | selection coefficient against synonymous wild-type codons (log2) (methotrexate 44 µM) |
| --- | --- | --- |
| S48R | -0.0942 ± 0.045 | -0.0675 ± 0.12 |
| S48P | -0.0912 ± 0.043 | -0.058 ± 0.075 |
| Y109W | -0.17 ± 0.0065 | -0.244 ± 0.098 |
| Y109F | 0.181 ± 0.098 | 0.256 ± 0.0068 |
| K189Q | -0.0594 ± 0.046 | -0.12 ± 0.036 |
| R96F | -0.424 ± 0.068 | -0.336 ± 0.069 |
| R96G | -0.356 ± 0.041 | -0.347 ± 0.047 |
| D99M | -0.598 ± 0.22 | -0.276 ± 0.027 |
| L167Y | -0.0995 ± 0.11 | -0.203 ± 0.072 |
| L167Q | -0.000736 ± 0.013 | -0.115 ± 0.18 |
| R140C | 0.114 ± 0.0064 | 0.0724 ± 0.075 |
| R140W | -0.4167 ± 0.0039 | -0.38 ± 0.04 |
| R140L | -0.304 ± 0.081 | -0.266 ± 0.11 |
| N139P | -0.423 ± 0.12 | -0.226 ± 0.08 |
| S183Q | -0.0683 ± 0.04 | -0.0632 ± 0.064 |
| L25Q | 0.455 ± 0.023 | 0.462 ± 0.015 |
| N118R | -0.25 ± 0.043 | -0.219 ± 0.082 |
| N118S | -0.0621 ± 0.024 | -0.00773 ± 0.27 |
| F35Y | 0.227 ± 0.02 | 0.248 ± 0.11 |
| F35A | 0.47 ± 0.021 | 0.662 ± 0.021 |

| Variant | selection coefficient against synonymous wild-type codons (log2) (methotrexate 8.8 µM) | selection coefficient against synonymous wild-type codons (log2) (methotrexate 44 µM) |
| --- | --- | --- |
| I123C | 0.294 ± 0.0085 | 0.493 ± 0.065 |
| I123E | -0.494 ± 0.14 | -0.242 ± 0.075 |
| A67R | -0.0578 ± 0.066 | -0.0578 ± 0.1 |
| A67M | -0.13 ± 0.037 | -0.127 ± 0.15 |
| S113M | -0.248 ± 0.0079 | -0.173 ± 0.058 |
| R47V | -0.279 ± 0.11 | -0.133 ± 0.07 |
| S6W | -0.226 ± 0.042 | -0.066 ± 0.17 |
| D100M | -0.403 ± 0.024 | -0.207 ± 0.19 |
| D100I | -0.7093 ± 0.0023 | -0.206 ± 0.075 |
| S165L | 0.0343 ± 0.028 | 0.0102 ± 0.068 |
| S165C | -0.0437 ± 0.071 | -0.0911 ± 0.088 |
| S165D | 0.0791 ± 0.027 | 0.0543 ± 0.14 |
| S165P | 0.028 ± 0.049 | -0.0865 ± 0.14 |
| P157G | -0.0398 ± 0.066 | -0.0839 ± 0.077 |
| T46F | -0.278 ± 0.065 | -0.358 ± 0.067 |
| T46Y | -0.282 ± 0.12 | -0.234 ± 0.19 |
| K22Y | -0.126 ± 0.068 | -0.0857 ± 0.072 |
| C129H | 0.107 ± 0.035 | 0.357 ± 0.29 |
